PubChem BioAssay AID488969 (Vanderbilt High Throughput Screening Facility, 2010)
In all, about 110,000 compounds were measured (“z-score”: median about -0.1, highest 2% from about 2 on). This is one part of the list.

Target: Metabotropic glutamate receptor 8 (Rattus norvegicus) (UniProt P70579)
Test: rat mGluR8 modulators via GIRK flux, primary screen, cell-based, thallium flux, HTS (AID 488969)
Details: HEK293 rat mGluR8, GIRK (G protein-gated inwardly rectifying potassium channel) thallium flux, FluoZin2; at 10 µM; stronger effect = higher value; submaximal glutamate (EC20) added with thallium

Chain of UniProt P70579 (P70579 whole entry, looked up): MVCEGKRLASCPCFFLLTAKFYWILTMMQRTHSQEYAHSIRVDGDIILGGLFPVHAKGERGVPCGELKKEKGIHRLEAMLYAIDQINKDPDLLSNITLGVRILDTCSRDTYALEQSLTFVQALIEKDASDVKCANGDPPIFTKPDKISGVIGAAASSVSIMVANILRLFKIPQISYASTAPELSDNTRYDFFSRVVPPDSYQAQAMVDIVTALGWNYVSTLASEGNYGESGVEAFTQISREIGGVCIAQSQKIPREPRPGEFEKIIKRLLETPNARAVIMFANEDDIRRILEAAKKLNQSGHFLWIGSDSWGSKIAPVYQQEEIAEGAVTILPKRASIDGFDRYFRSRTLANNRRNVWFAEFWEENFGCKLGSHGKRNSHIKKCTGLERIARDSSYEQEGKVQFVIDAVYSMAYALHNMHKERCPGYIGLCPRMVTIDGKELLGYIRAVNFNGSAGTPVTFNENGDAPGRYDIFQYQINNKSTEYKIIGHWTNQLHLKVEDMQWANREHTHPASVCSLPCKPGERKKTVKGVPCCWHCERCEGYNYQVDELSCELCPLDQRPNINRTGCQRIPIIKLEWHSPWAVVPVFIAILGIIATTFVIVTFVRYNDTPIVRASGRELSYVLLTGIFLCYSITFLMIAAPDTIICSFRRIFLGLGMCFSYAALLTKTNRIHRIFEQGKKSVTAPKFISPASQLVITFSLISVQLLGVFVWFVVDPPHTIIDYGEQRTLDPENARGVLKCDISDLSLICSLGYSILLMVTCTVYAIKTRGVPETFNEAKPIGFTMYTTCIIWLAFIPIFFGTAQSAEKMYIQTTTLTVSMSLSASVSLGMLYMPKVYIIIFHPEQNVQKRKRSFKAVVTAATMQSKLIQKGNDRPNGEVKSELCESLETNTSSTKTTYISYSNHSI

| Compound | z-score |
| --- | --- |
| O=c1c2ccccc2nc(-c2ccccc2)n1Cc1ccc(Cl)cc1 | -0.405 |
| CC1(C)CC(=O)C/C(=N\NC(=O)Cc2ccccc2)C1 | -0.224 |
| Cc1ccc(S(=O)(=O)N2CCN(CC(=O)NC3CCCc4ccccc43)CC2)c(C)c1 (stereo unspecified) | -0.116 |
| CCN(Cc1cc2ccccc2[nH]c1=O)C(=O)C(C)C | 0.118 |
| CC(=O)N1N=C(c2ccncc2)OC12CCCCC2 | -0.128 |
| CCCS(=O)(=O)N1CCCC(C(=O)NCc2ccco2)C1 (stereo unspecified) | 0.0819 |
| Cc1nnc(C)n1/N=C/c1cc(Br)ccc1O | -0.176 |
| COC(=O)c1cccc(COC(=O)c2ccc(N(C)C)cc2)c1 | -0.167 |
| COC(=O)CN1C(=O)S/C(=C/c2cc(C)n(C)c2C)C1=O | -0.441 |
| C=CCn1c(CNC(=O)CCC)nc2ccccc21 | 0.4 |
| O=C(CN1CCN(c2ccccc2F)CC1)c1ccc2c(c1)OCO2 | 1.11 |
| O=C(CC1CCCC1)Nc1ccc2c(c1)CCC2 | 0.0619 |
| O=C(N/C(=C\c1cccnc1)C(=O)N1CCOCC1)c1cccc(Br)c1 | 0.0614 |
| N#CC1=C(S)N(c2ccccc2)C(c2cccs2)NC1=O (stereo unspecified) | -0.923 |
| CC(C)CC(C(=O)O)N1C(=O)C2C3CC(C2C1=O)C1C(c2ccccc2)c2sc(=O)[nH]c2SC31 (stereo unspecified) | -0.079 |
| O=Cc1cccn1Cc1ccc(Cl)cc1Cl | -0.152 |
| COc1cc(C2Nc3ccc4ncccc4c3C3=C2C(=O)CC(C)(C)C3)cc(OC)c1O (stereo unspecified) | 0.0317 |
| Cc1ccc(NCN2C(=O)C3C4C=CC(C4)C3C2=O)cc1 (stereo unspecified) | 0.454 |
| COc1cccc(/C=N/NC(=O)c2c(-c3ccccc3)noc2C)c1 | -0.634 |
| O=C(NCCc1ccccc1)C1CCN(S(=O)(=O)N2CCC3(CC2)OCCO3)CC1 | 0.769 |
| COc1cccc(CN2CCSCC2)c1 | -0.739 |
| COC(=O)c1ccccc1OCC(=O)N1CCN(c2ccc(Cl)cc2)CC1 | -0.272 |
| CCOC1CCCCC1NS(=O)(=O)c1ccc(Cl)cc1 (stereo unspecified) | 0.534 |

| Compound | z-score |
| --- | --- |
| c1cnc(N2CCN(c3nc4ccccc4n4cnnc34)CC2)nc1 | -0.344 |
| O=C(CN1C(=O)c2ccccc2S1(=O)=O)Nc1ccc(S(=O)(=O)N2CCCCCC2)cc1 | 0.0349 |
| COc1ccc(OCC(O)Cn2c(Nc3ccccc3)nc3c2c(=O)n(C)c(=O)n3C)cc1 (stereo unspecified) | -0.45 |
| Cn1cnnc1SCCC(=O)Nc1ccccc1 | 0.0273 |
| O=C(Cc1ccc(Br)cc1)OCC(=O)c1ccc2c(c1)OCCO2 | 1.25 |
| Fc1ccc(C(c2nnnn2Cc2cccs2)N2CCN(C3CCCC3)CC2)cc1 (stereo unspecified) | 1.73 |
| O=C(Nc1nc2c(s1)CCCC2)c1ccc(Br)o1 | 1.13 |
| C=CCn1c(CNC(=O)c2cccs2)nnc1SCC(=O)c1ccc(Br)cc1 | -0.0812 |
| NS(=O)(=O)c1ccc(CCN2C(=O)/C(=C\c3ccc(Cl)cc3)SC2=S)cc1 | 0.283 |
| O=C(Nc1nnc(SCc2ccc(F)cc2)s1)c1ccco1 | 0.289 |
| COc1ccccc1NC(=O)Cn1nnc(-c2ccccc2NC(=O)c2cccs2)n1 | 0.0987 |
| O=C(Nc1ccc(Cl)cc1)Nc1nnc(CSCc2ccccc2Cl)s1 | 0.0978 |
| CCOC(=O)c1ccc(NS(=O)(=O)c2cccc3nsnc23)cc1 | 0.11 |
| CCCc1nnc(SCc2ccc(C(=O)OC)o2)n1N | 0.907 |
| COCC(=O)N/N=C/c1ccc(Sc2nc3ccccc3s2)o1 | -1.01 |
| Cc1cccc(-n2c(C)nc3c(cnn3-c3ccc(F)cc3)c2=O)c1 | 1.02 |
| COc1ccccc1CN(Cc1nc2ccccc2c(=O)[nH]1)C(=O)Nc1ccccc1 | -0.0817 |
| CCN1CCN(C(=S)c2ccc(SC)cc2)CC1 | -0.71 |
| CC(=O)N(CN1C(=O)c2ccccc2C1=O)c1ccccc1 | 0.329 |
| CCOc1cc(/C=C2\NC(=S)N(c3c(C)n(C)n(-c4ccccc4)c3=O)C2=O)ccc1O | 0.0819 |
| O=C(/C=C/c1ccccc1Cl)N(Cc1ccccc1)C1CCS(=O)(=O)C1 (stereo unspecified) | -1.26 |
| c1ccc(-n2c(-c3ccncc3)nnc2-c2ccco2)cc1 | 0.294 |
| COC(=O)[C@H](C)NC(=O)Nc1ccc(OC(F)(F)F)cc1 | -0.197 |

| Compound | z-score |
| --- | --- |
| Cc1nc(C)c(C(=O)Nc2ccc(C)c(F)c2)o1 | 0.227 |
| Cc1ccc(C(=O)NNC(=O)C2CCN(c3nccc(C)n3)CC2)cc1 | -0.385 |
| COCc1nc(-c2ccc(-c3ccc(C)cc3)nc2OC)no1 | 0.1 |
| CCOC(=O)c1sc(NC(=O)c2cncc(Br)c2)nc1C | -0.223 |
| Cc1cc(Nc2ccccc2)nc(N2CCOCC2)n1 | -0.0604 |
| Cc1cc(C)c(C#N)c(N2CCOCC2)n1 | 0.142 |
| CCOC(=O)C(C)Oc1cccc2c(=O)n(CC(=O)Nc3cccc(OC)c3)ccc12 (stereo unspecified) | 0.0424 |
| CCOC(=O)c1cn(CC(=O)Nc2ccc(CC)cc2)nn1 | 0.223 |
| c1coc(-c2nnc3sc(Cc4cccs4)nn23)c1 | -0.366 |
| N#Cc1cc(-c2ccccc2)nnc1Oc1ccccc1 | -0.14 |
| CCN(CC)c1ccc(N2C(=O)/C(=C/c3cccs3)SC2=S)cc1 | 0.0712 |
| CC(C)Cc1nc2oc3c(NCc4cccnc4)ncnc3c2c2c1CCC2 | -0.161 |
| CCOc1cc(S(=O)(=O)Nc2ccc(Cl)cn2)ccc1F | 0.00716 |
| CCCN(CCC)C(=O)C1CCN(c2cc(C)nc3c(-c4ccc(OC)c(OC)c4)c(C)nn23)CC1 | -0.644 |
| CCN(CC)S(=O)(=O)c1ccc(C(=O)NCc2ccc(C)cc2)cc1 | 0.0057 |
| N#CCC(=N)N1CCN(c2cccc(Cl)c2)CC1 | -0.0514 |
| COc1ccc(CN2CC(C(=O)NCCCN3CCCCCC3)CC2=O)cc1 (stereo unspecified) | 1.42 |
| Cc1ccc(S(=O)(=O)NCCC(C)C)cc1[N+](=O)[O-] | -0.28 |
| Cc1ccc(C2CC(=O)NC(SCC(=O)Nc3nccs3)=C2C#N)cc1 (stereo unspecified) | -0.395 |
| O=C(NCC1CCCO1)C1CCN(S(=O)(=O)N2CCCC2)CC1 (stereo unspecified) | -0.0936 |
| O=C(c1ccc(S(=O)(=O)N2CCCCC2)cc1)N1CCN(c2ccccc2F)CC1 | -0.401 |
| CCC(C)(C)NC(=O)C(c1ccc(F)cc1)N(Cc1ccco1)C(=O)c1snc(C(N)=O)c1N (stereo unspecified) | -0.00804 |
| CCOCCCNCC(O)c1ccccc1 (stereo unspecified) | -0.41 |

| Compound | z-score |
| --- | --- |
| Cc1ccc(CN2C(=O)CCC2C(=O)NCCCN2CCCC(C)C2)cc1 (stereo unspecified) | -0.173 |
| Cc1ccccc1SCC(=O)N1CCN(c2ccc(C(F)(F)F)cn2)CC1 | -0.139 |
| CC1CCN(CC(O)COc2ccc(F)cc2)CC1 (stereo unspecified) | -0.0578 |
| O=C(Nc1ccccc1C(F)(F)F)c1cc(-c2ccc(O)cc2)on1 | 0.798 |
| CC(C)(C)c1ccc(OCC(=O)N/N=C/c2cc(Br)ccc2OC(=O)c2ccco2)cc1 | 0.242 |
| CN(C)CCCNC(=O)CCC1CCCCC1 | 0.923 |
| COc1cc(OC)c(NC(=O)c2c(-c3ccccc3)noc2C)cc1Cl | -0.878 |
| COc1ccc(OC)c(NC(=O)COC(=O)Cc2ccc(-c3ccccc3)cc2)c1 | 0.0716 |
| CC1=CC2=NC(=O)/C(=C\c3cccn3CCOc3cccc(C)c3)C(=N)N2O1 | -0.65 |
| CCC(=O)Nc1ccc2c(c1)nc(CN1CCN(C(C)=O)CC1)n2C | 0.096 |
| Cc1ccc2c(c1)N(CC(=O)NCc1cccs1)C(=O)C(C)O2 (stereo unspecified) | -0.886 |
| CCc1nnc(NC(=O)CSc2nc(-c3ccccc3)nc3ccccc23)s1 | -0.175 |
| C=CCn1c(=O)/c(=C2/SC(C)=C(C)N2CC)s/c1=C1/C(=O)N(C)C(=S)N1c1ccccc1 | 0.574 |
| Cn1c(=O)[nH]c(=O)c2c1nc(Br)n2CCCCSc1nc2ccccc2o1 | -0.162 |
| Cc1ccccc1CSc1nnc(NC(=O)C2COc3ccccc3O2)s1 (stereo unspecified) | 0.0129 |
| CN(CCNC(=O)CN1CCN(Cc2ccccc2Cl)C1=O)Cc1ccccc1 | -0.17 |
| O=C1NCCN1C(=O)C12CC3CC(CC(C3)C1)C2 | 0.994 |
| OCCN1CCN(c2nc(NCc3ccco3)c3ccccc3n2)CC1 | -0.079 |
| CC1(c2cnc(Nc3ccccc3)s2)CCC(=O)O1 (stereo unspecified) | -0.037 |
| CC1=C(C(=O)Nc2ccccc2)C(c2ccco2)C(C#N)=C(SCC(N)=O)N1 (stereo unspecified) | -0.283 |
| Cc1cccc(Nc2nc3ccccc3s2)c1C | 0.572 |
| Cc1cc(C(F)F)n2nc(C(=O)Nc3ccc(S(=O)(=O)NC45CC6CC(CC(C6)C4)C5)cc3)nc2n1 | 0.0197 |
| Cc1cnc(C(=O)Nc2cccc3ncccc23)cn1 | 0.761 |

| Compound | z-score |
| --- | --- |
| Cc1cc(C)cc(-n2c(C)cc(/C=N/NC(=O)c3cccc([N+](=O)[O-])c3C)c2C)c1 | -0.128 |
| CCCCn1c(NC(=O)c2ccccc2Cl)c(C#N)c2nc3ccccc3nc21 | -0.783 |
| CC1CC(C(F)(F)F)n2nc(C(=O)O)cc2N1 (stereo unspecified) | 0.897 |
| C(#Cc1ccccc1)C[N+]1(CC#Cc2ccccc2)CCCC1 | -0.343 |
| Cc1cc(NC(=O)c2cncc(Br)c2)no1 | -0.316 |
| CC1(C)CC2CC(C)(CN2C(=O)COC(=O)c2ccc(Cl)cc2N)C1 (stereo unspecified) | 0.198 |
| CNc1cc(-n2nc(C)cc2-c2ccccc2)ncn1 | -0.127 |
| Cc1cc(C(=O)CSc2nc(N)cc(=O)[nH]2)c(C)n1-c1cccc(F)c1 | -0.14 |
| CC(=O)Cc1nsc(NC(=O)c2cc(-c3ccc(Cl)c(Cl)c3)oc2C)n1 | -0.22 |
| C/C(=N/OCO/N=C(\C)c1ccccc1F)c1ccccc1F | -0.559 |
| COC(=O)C(=Cc1ccc(OCc2ccc([N+](=O)[O-])cc2)c(OC)c1)C(=O)OC | -0.0754 |
| Cc1ccc(C)c(NC(=O)C(Sc2ncnc3ccccc23)c2ccccc2)c1 (stereo unspecified) | -0.161 |
| CCOC(=O)c1cccc(NS(=O)(=O)c2ccc(NC(C)=O)cc2)c1 | -0.337 |
| O=C(Cn1c(=O)n(CC(=O)NCc2ccccc2)c2ccccc21)NCc1ccccc1 | -0.0235 |
| CCN(CC)S(=O)(=O)c1ccc(NC(=O)c2cc(C(=O)OC)cc([N+](=O)[O-])c2)cc1 | -0.729 |
| Cc1cccc(NS(=O)(=O)c2cnc(Cl)c(Br)c2)n1 | -0.147 |
| Cc1cc(C)c(NC(=O)C(C)OC(=O)c2cc(Br)c(Br)s2)c(C)c1 (stereo unspecified) | -0.213 |
| Cc1csc(NC(=O)CSc2nnc(Cc3cccn3C)n2-c2ccc(F)cc2)n1 | -0.293 |
| O=C(CSc1cccc(C(F)(F)F)c1)Nc1ccc(Cl)cc1Cl | -0.131 |
